Data published in PubChem BioAssay AID504832 (National Center for Advancing Translational Sciences (NCATS), 2011).
The whole screen tested about 310,000 compounds, of which about 18,000 (5.8%) were called active. The shares of active, inactive and inconclusive entries below differ from those in the screen. The call rests on the fitted dose curve; in most records, active means well fitted inhibition curve with a large enough effect; inconclusive means small, poorly fitted or top-dose-only effect, or another doubt; inactive means no such curve, though single readings can be large or run the other way. No potency is given beside an inconclusive call; the fits are too rough.

Assay: Primary qHTS for delayed death inhibitors of the malarial parasite plastid, 48 hour incubation
Conditions: P. falciparum luciferase growth in erythrocytes; series mostly up to 28.7 µM
Outline: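 Cell-based growth assay: transgenic P. falciparum expressing firefly luciferase, cultured in red cells within RPMI 1640 containing 0.5% w/v Albumax, 24 mM bicarbonate and gentamycin. A drop in luciferase activity indicates inhibition.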
Potency means the concentration at half of the fitted maximal effect; tags describe the fitted curve by direction and shape.

Row | Structure (SMILES) | Potency
1 | COc1cccc(CNn2cn[nH]c2=S)c1OCc1ccccc1 | active: 10.4 µM
2 | Cc1ccc(N=Nc2c(O)c3ccccc3[nH]c2=O)c(S(=O)(=O)N(C)C)c1 | inconclusive [inhibitor, partial curve, poor fit]
3 | COc1ccccc1N(CC(=O)N1CCN(c2ccccc2)CC1)S(=O)(=O)c1ccc(C)cc1 | inconclusive [inhibitor, partial curve]
4 | CCc1ccc(N2CC(C(=O)OCC(=O)Nc3cc(C)on3)CC2=O)cc1 (configuration not stated) | inactive
5 | O=C(COC(=O)c1cccnc1)Nc1ccccc1 | inconclusive [inhibitor, single point]
6 | CCOc1ccc2[nH]c(=O)c(CN(Cc3ccco3)C(=O)c3ccc(Br)cc3)cc2c1 | inconclusive [inhibitor, partial curve, poor fit]
7 | Cc1c(Cl)ccc2sc(N3CCN(C(=O)C4=COCCO4)CC3)nc12 | inconclusive [inhibitor, single point]
8 | Cc1ccn2cc(C34CC5CC(CC(C5)C3)C4)nc2c1 | inactive
9 | c1coc(CNc2nc3ccccc3n2CCN2CCOCC2)c1 | inconclusive [inhibitor, partial curve, poor fit]
10 | CC1CCN(C(=O)CSc2nc(C(C)C)nc3c2c(=O)n(C)c(=O)n3C)CC1 | inconclusive [inhibitor, single point]
11 | O=c1[nH]nc(SCCS(=O)(=O)c2ccc(F)cc2)n1-c1ccccc1C(F)(F)F | inconclusive [inhibitor, single point]
12 | CCN(CC)S(=O)(=O)c1ccc(N2CCOCC2)c(NC(=O)CC2OC(=O)c3ccccc32)c1 (configuration not stated) | inconclusive [inhibitor, partial curve, poor fit]
13 | Cc1ccc(C(=O)NCC(=O)Nc2ccc(C)c(S(=O)(=O)Nc3ccc(Cl)cc3)c2)s1 | inconclusive [inhibitor, single point]
14 | O=C(CCNS(=O)(=O)c1c(Cl)cccc1Cl)OCC(=O)c1ccccc1F | inactive
15 | CS(=O)(=O)Nc1ccc(C2=NN(C(=O)c3ccco3)C(c3ccc(F)cc3)C2)cc1 (configuration not stated) | inconclusive [inhibitor, partial curve]
16 | Cc1cc(C)c(C(=O)Cn2nc(C(=O)O)c3ccccc3c2=O)cc1C | inactive
17 | Cc1ccc(S(=O)(=O)NCC2CCCO2)cc1 (configuration not stated) | inactive
18 | O=C(NCc1ccco1)C1CCN(c2ccc(S(=O)(=O)N3CCOCC3)cc2[N+](=O)[O-])CC1 | inconclusive [inhibitor, partial curve]
19 | O=C(Nc1scc(-c2ccccc2)c1C(=O)O)c1ccccc1Cl | inactive
20 | CCOC(=O)c1ccc(NC(=O)/C=C/c2cccs2)cc1 | inconclusive [inhibitor, partial curve, poor fit]
21 | Cc1ccc(OCC(=O)NCCN2CCN(C(=O)COc3ccc(C)cc3)CC2)cc1 | inconclusive [inhibitor, partial curve, poor fit]

Row | Structure (SMILES) | Potency
22 | COc1cc(CCCN2CCNC[C@@H]2Cc2ccccc2)cc(OC)c1OC | inconclusive [inhibitor, single point]
23 | Cc1cccc(N(C(=O)c2snc(C(N)=O)c2N)C(C(=O)NC2CCCC2)c2ccncc2)c1 (configuration not stated) | inconclusive [inhibitor, single point]
24 | CC(C)Cc1nc(SCc2cccnc2)c2c(=O)n(C)c(=O)n(C)c2n1 | inconclusive [inhibitor, single point]
25 | Cc1ccc(/C(N)=N/OC(=O)c2ccc3c(c2)OCO3)cc1 | inconclusive [inhibitor, single point]
26 | COc1ccc(C(=O)NCCSCc2ccc(Cl)cc2)cc1OC | inconclusive [inhibitor, partial curve, poor fit]
27 | CCOC(=O)c1ccc(NC(=O)NC2CC3CCC(C2)N3Cc2nnnn2C(C)(C)C)cc1 (configuration not stated) | active: 2.08 µM
28 | Cc1ccc(S(=O)(=O)N2CCCCC2)cc1C(=O)N(CCc1ccccc1)Cc1ccccc1 | active: 13.1 µM
29 | Cc1ccc(NC(=O)c2ccc(CSc3ccccn3)cc2)c(O)c1 | active: 1.47 µM
30 | CC[C@H](C)[C@@H](CNC)NC[C@@H](Cc1ccc(O)cc1)NCC(C)(C)C | inconclusive [inhibitor, partial curve]
31 | Cc1ccc(Oc2ncccc2NC(=O)CCCC(=O)O)c2c1CCC2 | inconclusive [inhibitor, single point]
32 | CCN(CC(=O)Nc1c(F)cccc1F)C(=O)c1ccc(-n2cncn2)c([N+](=O)[O-])c1 | inconclusive [inhibitor, partial curve, poor fit]
33 | CC(=O)N(CCN1CCOCC1)Cc1cc2cc3c(cc2nc1Cl)OCO3 | inconclusive [inhibitor, single point]
34 | Cc1ccc2c(c1)nnn2C1CCN(CC(=O)NCCc2nc3ccccc3[nH]2)CC1 | inconclusive [inhibitor, single point]
35 | O=C(Nc1ccccc1N1CCN(c2ccccc2)CC1)c1ccccc1F | inconclusive [inhibitor, single point]
36 | O=C(CC1C(=O)NCCN1Cc1ccccn1)NCCc1ccccc1F (configuration not stated) | active: 4.65 µM
37 | Cc1ccccc1Oc1nc2c(C)cccn2c(=O)c1/C=C(\C#N)C(=O)NC1CCS(=O)(=O)C1 (configuration not stated) | active: 5.86 µM
38 | CCOC(=O)C1(CCCc2ccccc2)CCN(C2CCN(C(C)=O)CC2)CC1 | inconclusive [inhibitor, partial curve, poor fit]
39 | O=c1oc2ccccc2c(NCCc2ccccc2)c1[N+](=O)[O-] | inconclusive [inhibitor, partial curve, poor fit]
40 | COc1cccc(NC(=O)CN(C)C(C)C(=O)Nc2ccc(S(=O)(=O)N3CCOCC3)cc2)c1 (configuration not stated) | active: 5.22 µM
41 | O=C(NCCc1ccc(Cl)cc1)c1ccc(Br)s1 | inactive
42 | C#CCOCCOCCOCCNc1nc(N2CCN(C(=O)CCCCCCCCCCNC(=O)[C@@H](CCSC)n3cc(CCO)nn3)CC2)nc(N2CCN(C(=O)CCCCCCCCCCNC(=O)[C@H]([C@@H](C)CC)n3cc(CCCCN=C(N)N)nn3)CC2)n1 | active: 1.65 µM
